PubChem BioAssay AID1347073 (National Center for Advancing Translational Sciences (NCATS), 2019)
About 200 (0.44%) of roughly 45,000 compounds were called active. Inconclusive results (about 7%) are left out. Calls follow the shape of the dose curve; as a rule, active = well fitted activation curve with a large enough effect; inconclusive = small, poorly fitted or top-dose-only effect; inactive = no such curve, though single readings can be large or run the other way. The list shows a part of the results.

Experiment: qHTS of TDP-43 Inhibitors: NCGC Sytravon Library Screen; also: 0% is about no effect; nearly all actives have a fitted effect of over 55% in size
Conditions: yeast TDP-43 toxicity rescue, BacTiter-Glo growth, 24 h; series mostly up to 46.1 µM; growth rescue (activation): at the top concentration
Summary of the method: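 TDP-43-expressing yeast, pregrown in raffinose, seeded at OD600 0.02 in galactose medium with compound for 24 hr at 30 deg C. Growth read by BacTiter-Glo luminescence, so rescue of toxicity appears as activation.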

Row | Compound | growth rescue (activation)
1 | CS(=O)(=O)Cc1ccc(C(=O)NNC(=O)c2cc(-c3ccccc3)n[nH]2)cc1 | inactive: 3.35%
2 | O=c1nc(N/N=C/c2ccccn2)cn[nH]1 | inactive: -0.134%
3 | CC(=O)Nc1cccc(-c2ccnc3c2CC(C(=O)Nc2ccc(F)c(Cl)c2)O3)c1 (stereo not drawn) | inactive: 13.4%
4 | Cc1onc(-c2ccccc2Cl)c1C(=O)N1CC(C)CC(C)C1 (stereo not drawn) | inactive: 4.06%
5 | CCn1nnc(-c2ccc(N)cc2)n1 | inactive: 6.39%
6 | CCN1CCN(CC(=O)c2cc(OC)c(OC)c(OC)c2)CC1 | inactive: 0.177%
7 | O=C(N/N=C\C=C\c1ccc(Br)cc1)c1ccc2c(c1)OCO2 | inactive: 8.82%
8 | Cc1ccc(C)c(S(=O)(=O)NC(CC(C)C)C(=O)O)c1 (stereo not drawn) | inactive: -15.8%
9 | COc1cc(NC(=O)CSc2ccccc2)c(C(=O)O)cc1OC | inactive: -0.803%
10 | CCc1ccc(NC(=O)COc2ccc(/C=C(/C#N)c3nc4ccccc4[nH]3)cc2OC)cc1 | inactive: -1.37%
11 | O=C(N=C1SCC(=O)N1c1ccccc1)c1ccco1 | inactive: 23.7%
12 | O=[N+]([O-])/C(C(Cl)=C(Cl)Cl)=C(/NC1CC1)Sc1ccccc1 | inactive: 11%
13 | O=C(Nc1ccccc1)NC1(C(=O)N2CCC(O)CC2)CCCCC1 | inactive: -1.62%
14 | Cc1ccc2c(C)nc(Nc3nc(CSc4nc5ccccc5s4)cc(=O)[nH]3)nc2c1 | inactive: -0.96%
15 | Cc1ccc(C)c(NS(=O)(=O)c2ccc3c4c(cccc24)C(=O)N3)c1 | inactive: -2.89%
16 | Cc1cccc(C)c1OCc1cc(C(=O)N2CCN(c3ccccc3)CC2C)no1 (stereo not drawn) | inactive: -1.42%
17 | O=C(Nc1cccnc1Cl)c1cc(-c2ccccc2O)on1 | inactive: 0.969%
18 | COc1ccc(C(=O)NCCCNC(=O)c2cccnc2)cc1OC | inactive: -2.89%
19 | CCS(=O)(=O)c1ccc(O)c(NC(=O)NC2CCCCC2)c1 | inactive: 22.7%
20 | O=C(N/N=C/c1ccc([N+](=O)[O-])o1)c1ccc(NS(=O)(=O)c2cccs2)cc1 | inactive: -11.5%
21 | S=C(Nc1ccc(Cl)cc1Cl)N1CCOCC1 | inactive: 12.3%
22 | CCOC(=O)C1(CCCc2ccccc2)CCN(C(=O)C(C)n2cncn2)CC1 (stereo not drawn) | inactive: 4.71%
23 | CCO/C(C)=N/n1c2nc3ccccc3nc2c2c(=O)n(C3CCCC3)c(C)nc21 | inactive: 23.5%
24 | CCOC(=O)c1ccccc1NC(=O)CSc1nc(N)cc(=O)[nH]1 | inactive: 29.8%
25 | Cc1cc(C)cc(NC(=S)N(Cc2ccc(Br)cc2)Cc2ccc(C(=O)O)cc2)c1 | inactive: 29.8%
26 | COC(=O)c1ccc(OCC(O)Cn2cnc3cc(C)c(C)cc32)cc1 (stereo not drawn) | inactive: 4.41%
27 | O=C(NNC(=O)C1CCN(c2ncccn2)CC1)c1ccc(Cl)cc1 | inactive: -5.31%

Row | Compound | growth rescue (activation)
28 | COC(=O)[C@@H](NC(=O)c1ccc2c(c1)S(=O)(=O)c1ccccc1C2=O)C(C)C | inactive: 5.38%
29 | C=CCNc1nc(NCc2ccc(NC(C)=O)cc2)c2sc(-c3ccccc3)cc2n1 | inactive: 2.9%
30 | CC1CCC2(CC1)NC(=O)N(CC(=O)NCc1ccc(Cl)cc1)C2=O (stereo not drawn) | inactive: 6.87%
31 | Oc1ccc(/C=N/Nc2cc(N3CCCC3)nc(N3CCCC3)n2)cc1O | inactive: 6.12%
32 | OCCC1CN(Cc2ccon2)CCN1CCc1ccccc1 (stereo not drawn) | inactive: 0.172%
33 | CC(NC(=O)COC(=O)c1ccc2c(c1)S(=O)(=O)N=C1CCCCCN12)C12CC3CC(CC(C3)C1)C2 (stereo not drawn) | inactive: -17.5%
34 | O=S(=O)(c1ccc(F)cc1)N1CCN(C(=S)NCc2ccccc2)CC1 | inactive: 9.57%
35 | CCOC(=O)NC(=O)CN1C(=O)NC2(CCc3ccccc32)C1=O (stereo not drawn) | inactive: 1.82%
36 | CC(C)CN=Cc1c(O)c([N+](=O)[O-])cc2oc3c(c12)CCCC3 | inactive: -92.9%
37 | Cc1ccc(C(=O)OCCN2CCN(c3ncc(C(F)(F)F)cc3Cl)CC2)cc1 | inactive: -2.46%
38 | FC(F)(F)c1ccccc1/C=N/n1c(COc2ccccc2)n[nH]c1=S | inactive: -0.868%
39 | CCC(=O)Oc1ccc(C(=O)Nc2c[nH]c(=O)[nH]c2=O)cc1 | inactive: 8.84%
40 | Cc1cccc(OCc2ccc(-c3nc(C#N)c(NCCN(C)C)o3)o2)c1 | inactive: 18%
41 | O=S(=O)(NC1=NCCC1)c1cccc(NC(=S)Nc2ccc(OC(F)F)cc2)c1 | inactive: 12.2%
42 | O=C(NCCNCc1ccccc1)c1ccco1 | inactive: -37.1%
43 | O=C(CSc1nc(CCC2CCCC2)nc2ccccc12)NCc1ccc2c(c1)OCO2 | inactive: 16.9%
44 | CN1CCN(C(=O)/C(=C/c2ccco2)NC(=O)c2ccccc2)CC1 | inactive: 14.1%
45 | CCOC(=O)NC(=O)CSc1cc(C)c2cc(C)cc(C)c2n1 | inactive: 18.3%
46 | C[N+](C)(CC#N)C/C=C\c1ccccc1 | inactive: 4.44%
47 | CC1(C(=O)NCCC#N)CCN1C(=O)C1(c2ccccc2)CCCC1 (stereo not drawn) | inactive: -0.001%
48 | COc1ccc(/C(C)=N/NC2=NCCN2)cc1Cl | inactive: 1.51%
49 | CCOc1ccc(CCN2C(=O)c3cccnc3C2=O)cc1OCC | inactive: 29.9%
50 | Cc1ccc(CNC(=O)CSc2ccsc2[N+](=O)[O-])cc1 | inactive: 9.09%
51 | O=C1C2CCCCC2C(=O)N1Cc1ccccc1 (stereo not drawn) | inactive: 18.7%
52 | CN(C)S(=O)(=O)c1cccc(NC(=S)NC(=O)C2CCCCC2)c1 | inactive: -6.09%
53 | CCc1ccc(N(CC)C(=O)c2ccc3c(=O)n4c(nc3c2)CCCCC4)cc1 | inactive: 7.37%
